Screen size: about 310,000 compounds; about 18,000 (5.8%) were called active. The shares of active, inactive and inconclusive entries below differ from those in the screen. The call rests on the fitted dose curve; in most records, active means well fitted inhibition curve with a large enough effect; inconclusive means small, poorly fitted or top-dose-only effect, or another doubt; inactive means no such curve, though single readings can be large or run the other way. Potencies of inconclusive entries are left out as doubtful fits.
Test: Primary qHTS for delayed death inhibitors of the malarial parasite plastid, 48 hour incubation
Conditions: P. falciparum luciferase growth in erythrocytes; series mostly up to 28.7 µM; activity change, negative = inhibition: at the top concentration
Summary of the method: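 Here the parasites carry a stable luciferase gene and grow inside erythrocytes in Albumax-based RPMI medium with compound for one erythrocytic cycle. Activity is scored as loss of luminescent signal.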
On the % scale 0 is the no-effect control and ±100 the full control effect; potency means the concentration at half of the fitted maximal effect; tags describe the fitted curve by direction and shape.

Structure (SMILES)	Potency	activity change, negative = inhibition
Cc1cc(C)nc(N/N=C/C2=C(N3CCOCC3)C(=C\c3ccc(Cl)cc3)/CC2)n1	inconclusive [inhibitor, single point]	
O=C(Nc1ccc2c(c1)OCO2)Nc1ccc2c(c1)OCO2		inactive: 63.2%
CC(C)CNC(=O)C(=O)NCCC1CCCCN1S(=O)(=O)c1cccs1 (stereo not given)		inactive: -11.7%
O=C(CN1CCN(c2ccccc2F)CC1)c1c[nH]c2ccccc12	inconclusive [inhibitor, single point]	
CC(C)(C)NC(=O)CN(Cc1cccs1)C(=O)CCN1CCc2ccccc21	inconclusive [inhibitor, partial curve, poor fit]	
O=C(NCC(c1cccnc1)N1CCN(c2ccccc2)CC1)c1ccc2c(c1)OCO2 (stereo not given)	inconclusive [inhibitor, single point]	
CCC(C)NC(=O)CSc1nc2ccccc2c(=O)n1CCCC(=O)NCC1CCCO1 (stereo not given)		inactive: -14.8%
O=C(Nc1cccc(S(=O)(=O)N2CCOCC2)c1)C1CCCN(C(=O)c2ccc(Cl)cc2)C1 (stereo not given)	inconclusive [inhibitor, partial curve]	
Cc1ccccc1-c1nc(CN2CCCC2c2ccc(F)cc2)c(C)o1 (stereo not given)	active: 10.4 µM	
Cc1cc(S(=O)(=O)N(Cc2ccc(F)cc2)CC2CCCO2)ccc1-n1cnnn1 (stereo not given)	inconclusive [inhibitor, single point]	
O=C(Nc1ccccn1)C1CCN(S(=O)(=O)c2ccc(Cl)cc2)CC1	inconclusive [inhibitor, partial curve, poor fit]	
O=C1CS/C(=N\N=C\c2ccco2)N1c1ccccc1		inactive: 28.3%
CCS(=O)(=O)N1CCCC(C(=O)NCCc2ccc(OC)c(OC)c2)C1 (stereo not given)		inactive: -4.08%
O=C(C1=C[C@@H](c2ccc(C(F)(F)F)cc2)C[C@@H](OCCCCO)O1)N1CCOCC1	inconclusive [inhibitor, single point]	
Cc1ccc(NC2CCCN(C(=O)CCc3ccncc3)C2)cc1C (stereo not given)		inactive: -6.58%
CCOc1ccc(-c2nc(C#N)c(NCc3ccc4c(c3)OCO4)o2)cc1		inactive: 21.9%
Cc1nc2cc(-c3sccc3-n3cccc3)nn2c(C)c1C		inactive: 0.658%
O=C(CCCN1C(=O)c2cccnc2Oc2ccc(Cl)cc21)N1CCCCC1	inconclusive [inhibitor, partial curve]	
COc1ccc(C(CNC(=O)c2cccc(S(=O)(=O)NCc3ccccc3)c2)N(C)C)cc1 (stereo not given)	inconclusive [inhibitor, single point]	
COc1cc(C(CC(=O)N2CCOCC2)c2c(OC)cc(OC)c3ccc(=O)oc23)cc(OC)c1OC (stereo not given)	inconclusive [inhibitor, single point]	
O=C(c1ccco1)N1CCN(c2nc(C3CC3)nc3c2nnn3Cc2ccccc2Cl)CC1	active: 6.57 µM	
CCCCCn1c(CN2CCN(c3cc(Cl)ccc3C)CC2)nc2c1c(=O)[nH]c(=O)n2C	inconclusive [inhibitor, single point]	

Structure (SMILES)	Potency	activity change, negative = inhibition
COC(=O)c1cc2c(ccn2-c2ccc(F)cc2)n1CC(=O)OC(C)C	inconclusive [inhibitor, single point]	
Cc1oc(-c2ccccc2Cl)nc1CN1CCCCC1c1cccnc1 (stereo not given)	active: 11.7 µM	
COc1ccc(CCNC(=O)CSc2nc(=O)[nH]c3c2CCC3)cc1OC	inconclusive [inhibitor, partial curve, poor fit]	
COc1ccccc1N1CCN(C(=O)C2CCCCN2S(=O)(=O)c2ccc(C)cc2)CC1 (stereo not given)	inconclusive [inhibitor, single point]	
CCc1ccc(NC(=O)CSc2n[nH]c(C)c2[N+](=O)[O-])cc1		inactive: 38.2%
CC(=O)c1c(O)cc(C)n(-c2ccc(F)cc2)c1=O		inactive: 31.8%
Cn1c(=S)[nH]c2scc(-c3cccs3)c2c1=O	inconclusive [inhibitor, partial curve]	
O=[N+]([O-])c1cc(S(=O)(=O)Nc2cccc(Cl)c2)ccc1N=Nc1c(O)[nH]c2ccccc12	inconclusive [inhibitor, partial curve]	
O=C(Nc1ccccc1C(=O)N1CCCC1)c1cccc(S(=O)(=O)N2CCCCC2)c1	inconclusive [inhibitor, single point]	
CCc1noc(C)c1C(=O)OCC(=O)Nc1cccc(C)c1	inconclusive [inhibitor, partial curve, poor fit]	
COc1ccc(N2CCN(CCNC(=O)c3ccc4c(c3)[nH]c(=S)n3c5ccccc5nc43)CC2)cc1	inconclusive [inhibitor, partial curve, poor fit]	
CCN(CC)C(=O)c1cccc(-c2ccc(OC)cc2)c1	inconclusive [inhibitor, single point]	
O=C1C2C3C=CC([C@@H]2C(=O)N1Cc1cccnc1)C31CC1 (stereo not given in full)		inactive: 34.6%
COc1ccc(NC(=O)CSc2nc3n[nH]c(C)c3c(=N)n2-c2ccc(Cl)c(C)c2)cc1OC	inconclusive [inhibitor, partial curve, poor fit]	
C=CCN1C(=O)CSc2ccc(C(=O)NC3CCCCC3)cc21	inconclusive [inhibitor, single point]	
CCOC(=O)c1c(C(=O)OCC)c(C)n(Cc2cc(OC)c(OC)c(OC)c2)c1C	inconclusive [inhibitor, partial curve]	
COc1cccc(NC(=O)Nc2nnc(CC(=O)Nc3ccccc3)s2)c1	inconclusive [inhibitor, partial curve, poor fit]	
COCCOC(=O)C1=C(C)NC(SCC(=O)NC(C)(C)C)=C(C#N)C1c1ccco1 (stereo not given)	inconclusive [inhibitor, single point]	
COc1ccc(C(c2c(C)n(C)n(-c3ccccc3)c2=O)c2c(C)n(C)n(-c3ccccc3)c2=O)cc1OC	inconclusive [inhibitor, partial curve, poor fit]	
COCCCN(CCC#N)C(=O)c1c(-c2c(Cl)cccc2Cl)noc1C		inactive: 49.8%
CCCC(NC(=O)CCl)c1ccccc1 (stereo not given)	active: 9.28 µM	
COc1ccc(-c2cn(CCCOCc3ccccc3)nn2)cc1	inconclusive [inhibitor, single point]	

Structure (SMILES)	Potency	activity change, negative = inhibition
COc1ccc(N2CCCn3c2nc2c3c(=O)n(CCCc3ccccc3)c(=O)n2C)cc1	inconclusive [inhibitor, partial curve, poor fit]	
Cc1ccc(N(Cc2cc(=O)[nH]c3ccccc23)C(=O)C(C)C)c(C)c1	inconclusive [inhibitor, partial curve, poor fit]	
CC(=O)N1c2ccc(S(=O)(=O)N3CCC(C(=O)N4CCN(c5cccc(C(F)(F)F)c5)CC4)CC3)cc2CC1C (stereo not given)	inconclusive [inhibitor, partial curve, poor fit]	
CSc1cccc(NS(=O)(=O)c2cc(Br)cnc2N)c1		inactive: 21%
CCCc1nnc(NC(=O)C23CC4CC(CC(C4)C2)C3)s1		inactive: 31.7%
Cc1ccc(-n2nnnc2SC(C(=O)c2c[nH]c3ccccc23)c2ccccc2)cc1 (stereo not given)	inconclusive [inhibitor, partial curve, poor fit]	
O=C(CN1CCN(c2ccc(O)cc2)CC1)Nc1ccc(-c2ccccc2)cc1	inconclusive [inhibitor, partial curve, poor fit]	
O=C(Nc1ccccc1)C1=C[C@H](c2csc3ccccc23)C[C@H](OCCCCO)O1	inconclusive [inhibitor, partial curve, poor fit]	
CCCCN(CC)CCCNC(=O)c1cn(CC(C)C)c(=O)c2c1c1ccccc1n2C	active: 13.1 µM	
CCc1ccc(C(=O)CN2C(=O)NC3(CCOc4ccccc43)C2=O)s1 (stereo not given)	inconclusive [inhibitor, single point]	
CCCCN(C)CCNC(=O)c1cc2c(-c3ccccc3F)nn(C)c2s1	inconclusive [inhibitor, full curve, poor fit]	
CC(=O)Nc1ccc(S(=O)(=O)N2c3ccccc3C(C)=CC2(C)C)cc1		inactive: -22.5%
CCn1c(CCC(=O)Nc2nc3c(s2)CCCC3)nc2cc(S(=O)(=O)N(C)C)ccc21		inactive: 0%
O=S(=O)(NC[C@@H]1CCC[C@H](CNS(=O)(=O)c2c(F)cccc2F)C1)c1ccc2c(c1)OCCO2	active: 8.28 µM	
CCN(CC)CCn1c(=S)[nH]c2cc(C(=O)N3CC=C(c4ccccc4)CC3)ccc2c1=O	inconclusive [inhibitor, partial curve, poor fit]	
Cc1cc2oc(C(=O)NCCc3ccc(S(N)(=O)=O)cc3)c(C)c2cc1C		inactive: -21.4%
CCCN1C(=O)C(O)(c2c(C)[nH]c3ccccc23)c2ccccc21 (stereo not given)		inactive: 4.45%
CN1CCC(N(C)S(=O)(=O)c2ccc(NC(=O)COc3ccc(Br)cc3Cl)cc2)CC1	active: 4.15 µM	
Cc1cc(-c2ccc(N=Nc3ccc4c(S(=O)(=O)O)cc(S(=O)(=O)O)c(N)c4c3O)c(C)c2)ccc1N=Nc1ccc2c(S(=O)(=O)O)cc(S(=O)(=O)O)c(N)c2c1O	inconclusive [inhibitor, single point]	
O=C(c1ccc(-n2cncn2)c([N+](=O)[O-])c1)N1CCN(S(=O)(=O)c2ccc(Cl)cc2)CC1	inconclusive [inhibitor, full curve, poor fit]	
NC(=O)c1oc2ccccc2c1NC(=O)Cc1ccccc1		inactive: -26.8%
